Among the data in the RNAGym collection of RNA variant scans (doi:10.7554/elife.90254) are self-cleavage values, retold here.

The source gives no read counts; variants with many changes may rest on few reads.

B1: LINE1-mini (parent)
chain: GGCAGAGCUCAACACAGCGUGGCAAAGUGGCUGUGGCUAGACUGCC

The variants in this data set derive from B1. As to the kind of experiment: self-cleavage, relative activity (ratio to wild type); higher = more cleavage; in vitro, sequencing; the parent is a self-cleaving ribozyme.
For the variant C10A C13A A16G G44U, the self-cleavage amounted to 0.

C10A C15G A26U C37G C42A: the self-cleavage worked out at 0. In the case of C10A A16C C31A, the self-cleavage amounted to 0.02. C10A C15U G21C: the self-cleavage was determined as 0.1.

In the case of C10A C13U C37A, the self-cleavage was found to be 0.03.

In the case of C10A A16U U20A C42U, the self-cleavage is 0.01. With C10A C15A U43A, the self-cleavage is 0.01. As for C10A A11C G22C A41U, the self-cleavage was 0. As to C10A C15A G19A U28C, the self-cleavage was 0.01.

Regarding C10A C15A A26C G29A G44C, the self-cleavage came to 0.03.

C10A C13G G22U: the self-cleavage stood at 0.03. C10A C18U C23A G44U: the self-cleavage came out at 0. With C10A A12U G29C A39G C46A, the self-cleavage was 0.02.

In the case of C10A C31U C37A, the self-cleavage came to 0.01.

Regarding C10A C37U A41G, the self-cleavage turned out to be 0.01. For the variant C10A A16U G19A G27A U34A, the self-cleavage was determined as 0.02. Turning to C10A A41C G44C C45A C46G, the self-cleavage is 0.04. Turning to C10A A14G U28G C45A, the self-cleavage turned out to be 0.03. Regarding C10A C23U G33C G35A, the self-cleavage came out at 0.03. As to C10A C15U U28C, the self-cleavage amounted to 0.1. Regarding C10A C15U U28G, the self-cleavage came to 0.06. With C10A G17U C31G, the self-cleavage is 0.02. With C10A C15A G17U A41C, the self-cleavage was found to be 0.01. In the case of C10A C18G C23U U43C, the self-cleavage is 0.02. In the case of C10A A26C G30U it was 0.01; in that of C10A C13U G27A U28C, 0.01. Turning to C10A C13U C46G, the self-cleavage came to 0.01. For the variant C10A C13G U28C G29U, the self-cleavage amounted to 0.02. For C10A A11U A16U G22U A26G G40C, the self-cleavage was determined as 0.01. With C10A C18A A24C U38C, the self-cleavage came out at 0.04. Regarding C10A A16U G30U, the self-cleavage was 0.05. As for C10A C15A C18G G19C G29U A39C, the self-cleavage was 0.02. U9G U34G C37U: the self-cleavage stood at 0.11. For C10A C23G G44A, the self-cleavage came to 0.02. With C10A A14C A41C, the self-cleavage was 0.04. With C10A A24U A25G, the self-cleavage stood at 0.02. As to C10A A11C G30A C45U, the self-cleavage was determined as 0.04.

C10A C15G A16U G17A G22A U32G: the self-cleavage stood at 0.07.

For the variant C10A A41G C42U, the self-cleavage amounted to 0.03.

As for C10A C15A G22C G29U, the self-cleavage amounted to 0.04. As for C10A A16U G40C, the self-cleavage was determined as 0.02. For C10A C18G A26U, the self-cleavage was 0.05. On to C10A C18G A26C, for which the self-cleavage amounted to 0.04.

Turning to C10A A12G C37G, the self-cleavage came to 0.03.

Regarding C10A A11G G29C G44U, the self-cleavage worked out at 0.01. Consider C10A A14U G22U G29C, for which the self-cleavage is 0.02. For the variant C10A C23U A39U C45A, the self-cleavage turned out to be 0.06. Next, C10A C13U A25C G40U: 0.01; C10A A16U U20C: 0.01. Turning to C10A A12C C13U G30C, the self-cleavage came out at 0. In the case of C10A A11U G30C G33C A41U U43A, the self-cleavage was determined as 0.

As for C10A A12U C18U G21A G33U, the self-cleavage was 0.01. As to C10A C13A G40A, the self-cleavage is 0.02. With C10A A12C U32G, the self-cleavage worked out at 0.01. As for C10A A24C U28G G29U, the self-cleavage was 0.06.

In the case of C10A C23A G29C C31G, the self-cleavage worked out at 0.01.

Turning to C10A C13U C23U, the self-cleavage was 0.02.

On to C10A C13U G30U C37U, for which the self-cleavage is 0.01.

Consider C10A C15A G17A, for which the self-cleavage was found to be 0.02. Regarding C10A C18A G29C U38A, the self-cleavage was 0.17. In the case of C10A A14C C42A it was 0.01; in that of C10A C15A G17A G21U, 0.06. Regarding C10A C15A U32C U34A, the self-cleavage was determined as 0.03.

Take C10A A14U C18G G21U G27U G30U: the self-cleavage came out at 0.04.

Consider C10A C15G A24G G29U, for which the self-cleavage came out at 0.02. Regarding C10A C31A C46A, the self-cleavage is 0.02. C10A G19C A25C G27C G33A U34A C37U: the self-cleavage was 0.01. As to C10A A26C G33U A41U, the self-cleavage is 0.08. As for C10A C13A C45A, the self-cleavage amounted to 0.01. For the variant C10A A14C A25C, the self-cleavage amounted to 0.01.

As for C10A A12U C15U C23A A41G C46A, the self-cleavage was determined as 0. Turning to C10A A39G C42G, the self-cleavage was 0.01. For C10A C15A A16C G17U G21C A41U C42U, the self-cleavage was found to be 0.02. In the case of C10A A14U C31G, the self-cleavage was 0.02. Turning to C10A C13U C37G G40U, the self-cleavage stood at 0. On to C10A A16G G19U U34A, for which the self-cleavage is 0.03. Turning to C10A A26G G44A, the self-cleavage was 0.03.

For C10A C18G U32A G33U, the self-cleavage was determined as 0.01.

C10A A16G G33C: the self-cleavage was found to be 0.01.

As for C10A C23A A24C G35U, the self-cleavage was determined as 0.01. For the variant C10A A14U C15A G21C U34C C46A, the self-cleavage came to 0.02. With C10A A24U G29A A39C, the self-cleavage amounted to 0.05. Consider C10A A16G U28C G30U, for which the self-cleavage is 0.01. Turning to C10A C18U C45A, the self-cleavage is 0.02. Consider C10A A11U A14C C42A, for which the self-cleavage is 0.

On to U9G U34G U43A, for which the self-cleavage came to 0.03. C10A G17C A41C: the self-cleavage was 0.01.

C10A A24C G27A C45G: the self-cleavage came to 0.01. In the case of C10A A39G A41C it was 0; in that of C10A A25U G29U U34G A39U C42A G44U, 0.01; in that of C10A C31A U38C C46A, 0.01. Consider C10A C18U A26C G30U C37U, for which the self-cleavage was 0.01. On to C10A A12C A14C G33A, for which the self-cleavage came out at 0.01. For the variant C10A A14C A24C, the self-cleavage was determined as 0. On to C10A C23A U28C G30U C42G, for which the self-cleavage was determined as 0.01. Take C10A C13G C18U A24U U34C G35U: the self-cleavage worked out at 0.01. Consider C10A C13A G17A C23A, for which the self-cleavage worked out at 0.04. As to C10A A14G A39G, the self-cleavage was found to be 0.01. In the case of C10A A14U U20C G35U G36A C42A it was 0.01. As to C10A C15A G19U G35A, the self-cleavage was 0.03.

Turning to C10A G17A A24C C37U, the self-cleavage was found to be 0.01.

Consider C10A A12U C18G U20G, for which the self-cleavage came to 0. Regarding C10A A11U G22A U34G C42G, the self-cleavage came to 0.01. Take C10A C15G U20G U38C G44A: the self-cleavage worked out at 0.01.

As for C10A C13A A26U, the self-cleavage worked out at 0.01. C10A G19A U28G: the self-cleavage came to 0.14. In the case of C10A A14G A16G C42A it was 0.01; in that of C10A A11C G35U C37G, 0.01.

As to C10A C18A U32A G44U, the self-cleavage was 0.01. As for C10A A16C A41C, the self-cleavage is 0. Regarding C10A C13G C18G G19C, the self-cleavage was found to be 0.02. Next, C10A C15A U28G: 0.02. In the case of C10A C18G U34A, the self-cleavage is 0.05. With C10A A16C C42U U43C C46A, the self-cleavage is 0. In the case of C10A C18U G19A A26G it was 0.05; in that of C10A A12U G30U C31U, 0.01; in that of C10A C15U C31A C37A, 0.01. As for C10A A24U G36A C42G, the self-cleavage was 0.02. As for C10A C13A A41U, the self-cleavage worked out at 0.03. As for C10A A16G A24G A39U A41U, the self-cleavage worked out at 0.04.

In the case of C10A C13G A24G C42G, the self-cleavage came to 0. On to C10A A24G G29U C31G, for which the self-cleavage came to 0.03.

In the case of C10A A11C G19U A41U, the self-cleavage stood at 0.03. Next, C10A A12G C15G C23A U43A: 0; C10A C23U U43A: 0.01; C10A C23A U43A C45A: 0.03. Regarding C10A G17U G19C G21U, the self-cleavage was 0.43. Next, C10A C15A G22U G36U C46U: 0.02; C10A C13U C42G: 0.02. Consider C10A G17U C18G C23U, for which the self-cleavage came to 0.02. For C10A C18U G44A, the self-cleavage was found to be 0.05.

Consider C10A A16G G44C, for which the self-cleavage came out at 0.05. With C10A A11C G30C, the self-cleavage is 0.02. For the variant C10A A11C G30A, the self-cleavage was 0.02. For the variant C10A A11C C23U U34A, the self-cleavage was 0.

As to C10A C31A U34G, the self-cleavage was 0.03.

C10A A11U G22C C45U: the self-cleavage is 0.

For C10A G17A G40U, the self-cleavage was found to be 0.01. Turning to C10A C18A C45U, the self-cleavage came out at 0.01. C10A C18U G29U: the self-cleavage came out at 0.07. Next, C10A A24U U28G G29U: 0.01. Turning to C10A A11C A14G, the self-cleavage worked out at 0. In the case of C10A C13U A14C C15U G19C it was 0.01; in that of C10A A16U A24U G30U C46A, 0.02. Turning to C10A C23U A25U A26U C45U, the self-cleavage stood at 0.01. Turning to C10A C13A G33U, the self-cleavage was 0.17. As for C10A C15A G36C, the self-cleavage came to 0.01.

Turning to C10A G17U G22C, the self-cleavage was determined as 0.06. Take C10A A11U C18A G27U: the self-cleavage is 0.

Take C10A C37A A39C A41U: the self-cleavage is 0.02. Take C10A A26C A39C C46A: the self-cleavage worked out at 0.01. Take C10A C23U G36U: the self-cleavage amounted to 0.04. For C10A C18G U20C A26C, the self-cleavage was 0.08. In the case of C10A A12G C23A it was 0.02; in that of C10A C13A C18U G21U, 0.03.

Turning to C10A A25G C37U, the self-cleavage turned out to be 0. In the case of C10A C15G G21U, the self-cleavage came to 0.

With C10A A16G A25C, the self-cleavage worked out at 0.02. C10A A14C A39C C46G: the self-cleavage turned out to be 0.01.

C10A C37G A41C: the self-cleavage was found to be 0.02. C10A A12G G29U G35U A39U: the self-cleavage came to 0.01.

Consider C10A A12G A16U, for which the self-cleavage is 0.02. For the variant C10A A14C C18G A25G C42U, the self-cleavage came to 0. In the case of C10A A16C G35U it was 0.01; in that of C10A G17U A24G, 0.37; in that of C10A A14U A25C C31U A41C C45G, 0.02. Turning to C10A A14G G21U C45A, the self-cleavage was determined as 0.05.
